Hit rate of the full screen: of about 50,000 compounds, about 800 (1.6%) showed an effect of 50% or more. The list shows a part of the results.
Each compound was assayed against Bcl-2-like protein 10 (Homo sapiens) (UniProt Q9HD36) (assay: TR3 peptide-Bcl-B binding displacers, biochemical primary FP assay, phenotype converters (AID 1240;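 note: 0% = Bcl-B with tracer peptide and DMSO and 100% = tracer peptide lacking Bcl-B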)). Conditions: GST-Bcl-B / FITC-TR3 peptide fluorescence polarization; stronger effect = higher value; compound at 3.75 mg/L.
UniProt Q9HD36, sequence (Q9HD36 whole entry, looked up): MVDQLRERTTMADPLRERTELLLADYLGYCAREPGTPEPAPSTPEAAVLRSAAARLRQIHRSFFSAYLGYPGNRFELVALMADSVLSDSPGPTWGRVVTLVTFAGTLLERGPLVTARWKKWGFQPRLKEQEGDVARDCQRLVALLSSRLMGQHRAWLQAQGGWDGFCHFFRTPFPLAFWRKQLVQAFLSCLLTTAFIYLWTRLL
In the case of `CCOc1ccccc1-n1sc2c(c1=S)-c1cc(C)ccc1NC2(C)C`, the displacement is reported as -5.3%. Work on `COc1ccc(NC(=O)c2cnn3c2NC(c2ccccc2)CC3C(F)(F)F)cc1OC` (stereo not given) yielded a displacement of 4.2%. With `CC(C)OCP(=O)(c1ccccc1)c1ccccc1` the displacement was 5%. `COc1ccc(S(=O)(=O)N2CCOCC2)cc1Br` gave a displacement of -7.7%. Work on `N#CSCCCCOc1ccc(I)cc1` yielded a displacement of 13.7%. `COc1ccc(CNC(=O)C(=O)Nc2cc(C)cc(C)c2)cc1` showed a displacement of 9.7%. Compound `Cc1cccc(/C(N)=N/OC(=O)Cc2ccc(Cl)cc2)c1` has a displacement of 6.3%. In the case of `COc1ccc(Br)cc1C(=O)Nc1ccc(C)c(C)c1`, the displacement is reported as 7.6%. Work on `C=CCOc1ccc(/C=C2/N=C(C)C(C(=O)OCC)=C2O)cc1OC` yielded a displacement of -2.1%. With `CCC1=NN2C(=N)/C(=C/c3ccc(OCc4ccc(F)cc4)cc3)C(=O)N=C2S1` the displacement was 0.4%. With `CSc1ccc(/C=N/NC(=O)COc2c(Br)cc(Br)cc2Br)cc1` the displacement was 7.9%. With `N#C/C(=C\c1ccc(-c2ccc(Br)cc2)o1)C(N)=O` the displacement was 4.6%. With `Nc1c(Cc2ccccc2)ccc2c1C(=O)c1ccccc1C2=O` the displacement was 10.3%. Work on `CN(C)c1cccc(C(=O)NC2CCCCCC2)c1` yielded a displacement of 5%. `COc1ccc(NC(=O)CN(c2ccccc2OC)S(=O)(=O)c2ccccc2)cc1OC` gave a displacement of 5.1%. For `CCOc1ccc2nc(SCC(N)=O)sc2c1`, the displacement was -0.4%. `CCN(CC)CCCOc1ccc(C)cc1C(C)(C)C` gave a displacement of 5.2%. Work on `Cc1ccc(-c2cc(C(F)(F)F)n3ncc(C(=O)NCC4CCCO4)c3n2)cc1` (stereo not given) yielded a displacement of 2.5%. `Cc1nc2ccc(Cl)cn2c1C(=O)NN=C1CCCCC1` was tested, and the displacement was 7.1%. In the case of `COc1cc(OC)cc(C(=O)N2CCN(C3CCCC3)CC2)c1`, the displacement is reported as -23.1%. Compound `Cc1ccc(Br)cc1S(=O)(=O)N1CCN(C(c2ccccc2)c2ccccc2)CC1` has a displacement of 4.7%. For `COc1ccc(OC)c(NC(=S)NC(NC(=O)c2ccco2)C(Cl)(Cl)Cl)c1` (stereo not given), the displacement was -8.9%. `O=C(Nc1cc(C(F)(F)F)ccc1N1CCCCC1)c1cccc([N+](=O)[O-])c1` gave a displacement of -9.9%. `CN1C(=O)/C(=C\c2ccc(OS(=O)(=O)c3ccccc3[N+](=O)[O-])cc2)SC1=S` was tested, and the displacement was 35.7%. Work on `COc1ccc(C2CC(=O)C3=C(C2)Nc2ccccc2NC3c2ccc(OCc3ccccc3)c(OC)c2)cc1OC` (stereo not given) yielded a displacement of 6.7%. `O=C(Nc1ccc(Cl)c(NC(=O)c2ccc(Cl)cc2Cl)c1)c1cccs1` was tested, and the displacement was 15.4%. `CC1=NN(c2cccc(C(F)(F)F)c2)C(=O)/C1=C/c1cccs1` gave a displacement of -10%. Compound `CC(=O)c1cc(C(=O)Nc2ccc(C(=O)O)cc2)oc1C` has a displacement of -7.6%. `O=S(=O)(/N=C(/c1ccccc1)N1CCOCC1)c1ccccc1` gave a displacement of 9.8%. Compound `Cc1cc(Cl)ccc1OCC(=O)Nc1ccc(Br)c(NC(=O)c2ccccc2)c1` has a displacement of 6.6%.

From PubChem BioAssay AID1240 (Sanford-Burnham Center for Chemical Genomics, 2008)
